Toxic doses and inconclusive results are not listed. Some entries of the source have several records that differ or are many. They are shown here; other results are not. The source may hold further records. Values that stand side by side are repeated measurements (runs, samples, wells, individuals or studies). Marks in square brackets tell the records apart. The letters are not those of the source and start again with each entry.
Test system: L1210 leukemia ip in BDF1 mice, survival T/C
Test: NCI In Vivo Anticancer Drug Screen. Data for tumor model L1210 Leukemia (intraperitoneal) in B6D2F1 (BDF1) mice
Conditions: endpoint: mean survival time, higher = longer survival

Clc1ccc(NC2=NCCO2)cc1Cl
T/C (dose: 100.0 mg/kg/injection, schedule: Q04DX003 (ip), vehicle: saline with Tween-80): 92 % of control and 150 % of control

O=[N+]([O-])c1cccc(OCCOc2ccccc2)c1
T/C (dose: 50.0 mg/kg/injection, schedule: Q01DX009 (ip), vehicle: saline with Tween-80): 96 % of control and 161 % of control

O=C(CCBr)N1CCN(C(=O)CCBr)CC1
T/C (dose: 200.0 mg/kg/injection, schedule: Q04DX003 (ip), vehicle: saline): 115 % of control and 170 % of control

O=C1C=CC(=O)O1 (tested in a mixture with another compound)
T/C (dose: 200.0 mg/kg/injection, schedule: Q01DX009 (ip), vehicle: saline): 98 % of control, 124 % of control [sample A] and 111 % of control, 115 % of control [sample B] and 111 % of control, 115 % of control [sample C]

O=C1C(N2CCOCC2)=C(N2CC2)C(=O)C(N2CCOCC2)=C1N1CC1
T/C (dose: 6.0 mg/kg/injection, schedule: Q01DX009 (ip), vehicle: saline): 119 % of control and 164 % of control

CC1CC(C)(O)CC(C(O)CC2CC(=O)NC(=O)C2)C1=O (stereo not given)
T/C (dose: 0.6 mg/kg/injection, schedule: Q01DX Z (ip), vehicle: other): 118 % of control and 164 % of control

O=C[C@@H](CO)O[C@H](C=O)n1cnc2c(=O)[nH]cnc21
T/C (dose: 55.0 mg/kg/injection, schedule: Q01DX009 (ip), vehicle: saline): 122 % of control and 153 % of control

COc1cc2c3c(c4ccc(OC)c(OC)c4c2cc1OC)CN1CCC[C@@H]1C3
T/C (dose: 10.0 mg/kg/injection, schedule: Q03DX Z (ip), vehicle: water): 114 % of control, 116 % of control, 152 % of control
T/C (dose: 20.0 mg/kg/injection, schedule: Q02DX Z (ip), vehicle: water): 122 % of control and 155 % of control
T/C (dose: 20.0 mg/kg/injection, schedule: Q03DX Z (ip), vehicle: water): 117 % of control and 151 % of control

From PubChem BioAssay AID248 (DTP/NCI, 2004)
